Laboratory results reported in the RNAGym collection of RNA variant scans (doi:10.7554/elife.90254).
Read counts are not given, so values of variants with three or more changes are uncertain.

B1: LINE1-mini (parent)
chain: GGCAGAGCUCAACACAGCGUGGCAAAGUGGCUGUGGCUAGACUGCC

Variants of: B1
Test: self-cleavage, relative activity (ratio to wild type); higher = more cleavage; in vitro, sequencing; the parent is a self-cleaving ribozyme

| Variant | self-cleavage |
| --- | --- |
| A4G G5A A14C U34G | 0.09 |
| G17C A25C G35A | 0.05 |
| C8A C15A C18U G21A A41C | 0.2 |
| A16U G22U C46A | 0.08 |
| C3U A16C U20A G29C U32C | 0.06 |
| A6G A12G C13U G27A U28G G29C | 0.02 |
| G7A C10A A11C U28A G30U | 0.01 |
| C10G A11C G19C C23A G30C | 0.02 |
| A6C C8U C10U C15U G29U G36U U38A | 0.05 |
| C8A C13G U20C G27U G29A | 0.28 |
| C8G A16G G44A | 0.02 |
| G21A C37U A41U | 0.04 |
| G1A C3A A16G C23G G30U C42A | 0.07 |
| A6U A25C C31A C42A U43G | 0.11 |
| G21A A25C G35U | 0.05 |
| C15A G19A U32C | 0.11 |
| A4U A6U C8U G30U | 0.04 |
| G5C G17U U20C U38G | 0.02 |
| G22C C23A A26G U28G G30C | 0.33 |
| G1A A4U A39U | 0.13 |
| G1A A14C C18A G19A G33A | 0.03 |

| Variant | self-cleavage |
| --- | --- |
| C3A C13U G17C U20A G30C C31U G36U A39C | 0.05 |
| U20C C31G G33U U38A A39C C45A | 0 |
| A14U G29A G35A | 0.08 |
| G1U G21U G33C | 0.01 |
| G1C U9G C23U | 0.01 |
| U34C G36A C45U C46A | 0.04 |
| A12C A16U G17A C23G U34G U38A | 0 |
| C10A A14C U28A A41C | 0 |
| C3A C8A U9G U34C | 0.95 |
| C10A G19C U20G G21A G35U G44U | 0.01 |
| U9C C13U A14U G19A U34C | 0.04 |
| C15G C31G U38A | 0.03 |
| G1A C8U C23U C46G | 0.04 |
| C8G C10A C15U U20A G33A A39U C42U | 0.02 |
| G1U G5U A16G A24U | 0.03 |
| C8U A12U C15U C18A G22U G40C | 0.08 |
| A11C C37U C46U | 0 |
| A26C G29A C45A | 1.21 |
| C8G G22A U32A A39G A41G | 0.01 |
| G1U G21U C23A | 0.2 |
| C15A C31G C45A C46A | 0.02 |

| Variant | self-cleavage |
| --- | --- |
| G7U C18G G33U G40A U43A | 0.13 |
| C23G G29A U43A | 0.09 |
| A14C C31G C42U | 0.03 |
| G1A A4C G17C C18A A25C G36U A41U | 0.01 |
| G2C C15U A25C G35C C45A | 0.1 |
| G22A G27A G35C | 0.23 |
| G19U G36A G44A | 0.23 |
| G7U C10U U38A A41U | 0.01 |
| C8G C13U U28G G29U C37G | 0.1 |
| A4U A11C A25C | 0.2 |
| C8G A16C U28G A39U | 0.01 |
| C10A U38C G44A | 0.25 |
| C10A A25C A39G | 0.02 |
| C8G A25U A41U C42A | 0.05 |
| G1A G5U G29C | 0.02 |
| C13G A14U A41G | 0.04 |
| G7A G22U G30U | 0.07 |
| C8U A16C G27C G35A | 0.29 |
| G1C G7U U20A C46A | 0.02 |
| G19U U28C C31G C45G | 0.05 |
| A12G A25U A26C G29C | 0.01 |

| Variant | self-cleavage |
| --- | --- |
| G7U U9A G44U C46A | 0.01 |
| C3U U9A C18U G36U | 0.04 |
| C3A G7A C18G A24G G27U C46U | 0.04 |
| C10G G21U U28A | 0.05 |
| C8A A12G A14C G17C G33U | 0.24 |
| A14U G27U C37U A39G | 0 |
| A4C A14U C37U A39G | 0.14 |
| C10A G17A U38C | 0.07 |
| G1A C3A G27A | 1.44 |
| C10A A12U C13G C15A | 0.01 |
| G2A C18A A26G C45G | 0.14 |
| C13U G21C G22U G44A | 0.04 |
| C23A C31U G36A | 0.07 |
| C18A U28C A39G | 0.05 |
| C3G G5U C45G | 0.34 |
| C15A G17A C18A A25C U32G G35A G36A | 0.02 |
| G7C G19C U20A C23U | 0.03 |
| A6C C15U A24G | 0.21 |
| G5A A6U C13G A25U | 0.05 |
| C31U G33U C46G | 0.07 |
| C3U A6C G7C | 0.14 |
